Experimental data from patent US20220213192A1 (WUXI BIOLOGICS IRELAND, published 2022).

Experiments:
[1] = molecular target: T1, human LAG-3 expressed on Jurkat cells with IL-2 luciferase reporter (human, UniProt P18627 23-525); test: cell-based or functional assay
T1 sequence (looked up): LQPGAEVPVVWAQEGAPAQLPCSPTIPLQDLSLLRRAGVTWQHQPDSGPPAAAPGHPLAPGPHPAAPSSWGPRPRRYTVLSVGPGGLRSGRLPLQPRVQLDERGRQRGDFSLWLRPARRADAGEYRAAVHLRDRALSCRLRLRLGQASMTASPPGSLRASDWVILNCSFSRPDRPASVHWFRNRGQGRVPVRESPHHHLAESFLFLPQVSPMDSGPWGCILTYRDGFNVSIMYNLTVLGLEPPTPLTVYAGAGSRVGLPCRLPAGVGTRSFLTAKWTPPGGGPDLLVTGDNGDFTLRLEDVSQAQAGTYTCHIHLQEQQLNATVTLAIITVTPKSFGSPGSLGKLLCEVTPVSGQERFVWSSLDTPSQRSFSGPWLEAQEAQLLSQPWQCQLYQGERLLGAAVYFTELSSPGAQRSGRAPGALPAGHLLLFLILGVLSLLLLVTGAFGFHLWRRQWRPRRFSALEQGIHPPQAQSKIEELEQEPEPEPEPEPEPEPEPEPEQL

[2] = molecular target: T2, His-tagged mouse PD-1 protein (mouse, UniProt Q02242 25-167); test: ELISA, antibody coated, His-tagged mouse PD-1 titrated
T2 construct: Bought protein; also called Mouse PD-1 (His tag); not shown: His tag
T2 sequence (looked up): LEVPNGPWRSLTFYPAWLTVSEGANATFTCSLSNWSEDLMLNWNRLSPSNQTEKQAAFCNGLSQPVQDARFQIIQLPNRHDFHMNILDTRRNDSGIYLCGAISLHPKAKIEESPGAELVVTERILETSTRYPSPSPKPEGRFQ
Protocol: (§1) After washing, TMB substrate was added and the color reaction was stopped by 2M HCl. The absorbance at 450 nm was read using a microplate reader.

[3] = molecular target: T3, His-tagged mouse LAG-3 protein (mouse, UniProt Q61790 24-442); test: ELISA, antibody coated, His-tagged mouse LAG-3 titrated
T3 construct: extracellular domain; not shown: His tag
T3 sequence (looked up): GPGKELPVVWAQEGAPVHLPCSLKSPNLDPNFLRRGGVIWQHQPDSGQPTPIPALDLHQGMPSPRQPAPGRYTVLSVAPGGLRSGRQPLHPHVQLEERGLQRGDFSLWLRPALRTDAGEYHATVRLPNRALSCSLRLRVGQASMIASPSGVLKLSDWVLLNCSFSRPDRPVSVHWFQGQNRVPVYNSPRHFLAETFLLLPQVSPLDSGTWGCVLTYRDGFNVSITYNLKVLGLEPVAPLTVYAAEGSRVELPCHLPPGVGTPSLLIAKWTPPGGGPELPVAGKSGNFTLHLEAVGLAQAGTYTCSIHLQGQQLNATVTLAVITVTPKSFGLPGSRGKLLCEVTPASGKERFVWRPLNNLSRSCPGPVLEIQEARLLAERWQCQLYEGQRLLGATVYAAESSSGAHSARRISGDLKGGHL
Protocol: as §1

[4] = molecular target: T4, cynomolgus PD-1 expressed on 293F cells (cynomolgus, UniProt B0LAJ3 25-288); test: flow cytometry on 293F cells expressing cynomolgus PD-1
T4 construct: also called cell surface cynomolgus PD-1
Protocol: MFI of the cells was measured by flow cytometry and analyzed by FlowJo (version 7.6.1).

[5] = molecular target: T5, mouse Fc-tagged human PD-1 (human, UniProt Q15116 in part); test: ELISA, antibody coated, mouse Fc-tagged human PD-1 titrated
T5 construct: extracellular domain; also called mouse Fc-tagged PD-1 protein; human PD-1 protein; not shown: mouse Fc tag
Protocol: (§2) The plates were then washed and subsequently incubated with HRP-labeled goat anti-mouse IgG antibody for 1 hour. After washing, TMB substrate was added and the color reaction was stopped by 2M HCl. The absorbance at 450 nm was read using a microplate reader.

[6] = molecular target: T6, mouse Fc-tagged human LAG-3 (human, UniProt P18627 23-450); test: ELISA, antibody coated, mouse Fc-tagged human LAG-3 titrated
T6 construct: extracellular domain; only human LAG-3 ECD is described with a mouse Fc tag; also called mouse Fc-tagged LAG-3 protein; human LAG-3 protein; not shown: mouse Fc tag
T6 sequence (looked up): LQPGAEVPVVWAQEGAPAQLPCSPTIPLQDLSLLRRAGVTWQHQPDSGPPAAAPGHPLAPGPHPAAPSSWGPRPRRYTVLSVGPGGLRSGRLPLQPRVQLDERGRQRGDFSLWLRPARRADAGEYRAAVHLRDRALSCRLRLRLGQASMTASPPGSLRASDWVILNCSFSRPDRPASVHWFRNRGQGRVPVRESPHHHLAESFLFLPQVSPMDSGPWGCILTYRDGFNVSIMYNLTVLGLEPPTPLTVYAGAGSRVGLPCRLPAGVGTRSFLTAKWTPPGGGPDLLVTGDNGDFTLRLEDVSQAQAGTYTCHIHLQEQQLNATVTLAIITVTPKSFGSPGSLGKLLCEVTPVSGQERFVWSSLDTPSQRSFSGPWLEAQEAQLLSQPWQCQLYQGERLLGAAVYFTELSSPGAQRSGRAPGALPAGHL
Protocol: as §2

[7] = molecular target: T7, His-tagged cynomolgus LAG-3 (cynomolgus); test: ELISA, antibody coated, His-tagged cynomolgus LAG-3 titrated
T7 construct: Bought protein; also called Cynomolgus LAG-3 (His tag); cynomolgus LAG-3 protein
Protocol: as §1

[8] = molecular target: T8, Recombinant human CD4 protein (human, UniProt P01730 in part, limits assumed); test: ELISA on coated human CD4 (1 ug/mL), secondary antibody, OD450
T8 construct: Bought protein
Protocol: (§3) Cross-reactivity to human CD4, CTLA-4 or CD28 was measured by ELISA. Plates were coated with human CD4, CTLA-4 or CD28 at 1 μg/mL overnight at 4° C. […] The plates were then washed and subsequently incubated with corresponding secondary antibody for 60 min. After washing, TMB substrate was added and the color reaction was stopped by 2M HCl.

[9] = molecular target: T9, human CD28 protein (human, UniProt P10747 19-152); test: ELISA on coated human CD28 (1 ug/mL), secondary antibody, OD450
T9 construct: extracellular domain; the only one described is the mouse Fc-tagged ECD; also called Mouse Fc-tagged CD28 ECD; not shown: mouse Fc tag
Protocol: as §3

[10] = molecular target: T10, human CTLA-4 protein (human, UniProt P16410 36-161); test: ELISA on coated human CTLA-4 (1 ug/mL), secondary antibody, OD450
T10 construct: extracellular domain; the only one described is the mouse Fc-tagged ECD; also called Mouse Fc-tagged human CTLA-4 ECD; not shown: mouse Fc tag
T10 sequence (P16410 36-161): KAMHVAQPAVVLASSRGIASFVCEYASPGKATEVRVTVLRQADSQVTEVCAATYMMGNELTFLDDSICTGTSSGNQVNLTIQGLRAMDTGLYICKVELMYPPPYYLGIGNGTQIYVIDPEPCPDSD
Protocol: as §3

[11] = molecular target: T6, mouse Fc-tagged human LAG-3; test: blocking of mouse Fc-tagged LAG-3 binding to MHC-II on Raji cells, flow cytometry
Protocol: The mixture was transferred into the 96-well plates seeded with Raji cells which express MHC-II on the surface. Goat anti-mouse IgG Fc-PE antibody was used to detect the binding of LAG-3 protein to Raji cells. The MFI was evaluated by flow cytometry and analyzed by the software FlowJo.

[12] = molecular target: T11, PD-1 expressed on CHO-S cells (Homo sapiens (Human), UniProt Q15116 25-288); test: blocking of mFc-tagged PD-L1 binding to PD-1 expressing CHO-S cells, flow cytometry
T11 construct: The making of this cell line is not described; also called PD-1 expressing CHO-S cells; PD-1 expressing cells
Protocol: The mixture was transferred into the 96-well plates seeded with PD-1 expressing CHO-S cells. […] The MFI was evaluated by flow cytometry and analyzed by the software FlowJo.

[13] = molecular target: T12, His tagged human PD-1 protein (human, UniProt Q15116 in part); test: SPR (Biacore 8K), antibody captured by anti-human IgG Fc, His-tagged antigen injected, 1:1 fit
T12 construct: Analyte in SPR; also called Human PD-1 (His tag); not shown: His tag
Protocol: (§4) The chip was regenerated by 10 mM glycine (pH 1.5) after each binding cycle.
(§5) The sensorgrams of blank surface and buffer channel were subtracted from the test sensorgrams. The experimental data was fitted by 1:1 model using Langmiur analysis.

[14] = molecular target: T13, His tagged cynomolgus PD-1 (cynomolgus, UniProt B0LAJ3 25-170); test: as above
T13 construct: Analyte in SPR; also called Cynomolgus PD-1 (His tag)
Protocol: as §4, §5

[15] = molecular target: T2, His-tagged mouse PD-1 protein; test: as above
Protocol: as §4, §5

[16] = molecular target: T3, His-tagged mouse LAG-3 protein; test: SPR (Biacore 8K), antibody captured by anti-human IgG Fc, His-tagged mouse LAG-3 injected, 1:1 fit
Protocol: as §4, §5

[17] = molecular target: T14, Human LAG-3 without tag (human, UniProt P18627 23-450); test: SPR (Biacore 8K), antibody immobilized on CM5, untagged human LAG-3 injected, single-cycle kinetics, 1:1 fit
T14 construct: extracellular domain; also called untagged LAG-3 ECD protein
T14 sequence (looked up): T6 sequence (looked up)
Protocol: The chip was regenerated with 10 mM glycine (pH 1.5).
as §5

[18] = molecular target: T5, mouse Fc-tagged human PD-1; test: dual-binding ELISA after incubation in human serum at 37 C: mouse Fc-tagged human PD-1 coated, antibody titrated, then His-tagged LAG-3 and HRP anti-His antibody, OD450
T5 sequence (Q15116 25-170): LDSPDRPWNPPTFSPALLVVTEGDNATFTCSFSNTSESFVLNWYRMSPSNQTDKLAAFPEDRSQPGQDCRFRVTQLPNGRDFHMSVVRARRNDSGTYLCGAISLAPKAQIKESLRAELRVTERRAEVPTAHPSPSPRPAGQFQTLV

EC50 of IL-2 pathways enhancement in LAG-3 expressing Jurkat [1]: 0.84 nM
EC50 [2]: 0.26 nM
EC50 [3]: 0.87 nM
EC50 [4]: 0.36 nM
EC50 [5]: 0.07 nM
EC50 [6]: 0.32 nM
EC50 [7]: 1.21 nM
binding result [8]: no binding (tested: 6.7 nM)
binding result [9]: no binding (tested: 6.7 nM)
binding result [10]: no binding (tested: 6.7 nM)
EC50 [11]: 1.39 nM
EC50 [12]: 0.58 nM
Kd [13]: 2.92 nM
koff [13]: 0.000736 s⁻¹
kon [13]: 252000 M⁻¹ s⁻¹
Kd [14]: 8.45 nM
koff [14]: 0.00166 s⁻¹
kon [14]: 197000 M⁻¹ s⁻¹
Kd [15]: 32.9 nM
koff [15]: 0.00499 s⁻¹
kon [15]: 152000 M⁻¹ s⁻¹
Kd [16]: < 0.0051 nM
koff [16]: < 1e-05 s⁻¹
kon [16]: 1.96e+06 M⁻¹ s⁻¹
Kd [17]: 0.301 nM
koff [17]: 9.03e-05 s⁻¹
kon [17]: 300000 M⁻¹ s⁻¹
EC50 (read off the curve) [18]: ~0.1 nM
B1: W3659-U14T4.G1-1.uIgG4.SP (bispecific antibody)
chain: QVQLVESGGGVVQPGGSLRLSCAASDSIDSLVNMGWYRQAPGKQRELVALIATYITHYADFVKGRFTISRDNSKNTLYLQMNSLRAEDTAVYYCYARNIIVDYWGQGTLVTVSS[letters of human IgG4 Fc with S228P (EU numbers) left out]GGGGSGGGGSGGGGSGGGGSGGGGSGGGGSGGGGSQVQLVESGGGVVQPGGSLRLSCAASGLTLSQYTMGWFRQAPGKERELVAAIHWTSSVTDYADSVYGRFTISRDDSKNTGYLQMNSLRAEDTAVYYCAATHYYTHRGPFDYWGQGTLVTVSS
notes: also called PD-1×LAG-3 bispecific antibody; PD-1×LAG-3 antibody
